Measurements reported in publication PMC11945542 (Viruses, 2025).

Assays:
SARS-CoV-2 = assay type: cell-based; settings: VeroE6 cells, plaque reduction assay, 65 h

SMILES	host cell toxicity (visual) (VeroE6 cells)	antiviral activity against SARS-CoV-2 (in words) (SARS-CoV-2)
O=C(Nc1ccc(Oc2ccncc2)cc1)Nc1cc(C(F)(F)F)ccc1-n1cncn1 [Compound 3]	displayed host cell toxicity	–
CNC(=O)c1cc(Oc2ccc(NC(=O)Nc3cc(C(F)(F)F)ccc3-n3ccnc3)cc2)ccn1 [Compound 2]	–	low activity
CNC(=O)c1cc(Oc2ccc(NC(=O)Nc3cc(C(F)(F)F)ccc3-n3cncn3)cc2)ccn1 [Compound 1]	–	dose–response antiviral activity
